# Source: US11530246B2, “Regulated synthetic gene expression systems” (TRUSTEES OF BOSTON UNIVERSITY, priority 2019, dated 2022)
# Test system: synTF-responsive reporter constructs
# Experiment: synTF library activity on cognate and non-cognate reporters, HEK293FT reporter lines
# Format: cell-based, human
# Settings: 4 tandem DBMs upstream of minimal promoter
# Source text: Described herein is a workflow for creating 6-unit ZF arrays that target defined 20-bp DBMs, a length that in principle provides unique addressability in the human genome. The workflow leverages modular assembly and functional selection of 6-unit arrays from of 2-unit building blocks. Using this approach, a library of eleven 6-unit arrays was created with binding specificities chosen to maximize orthogonality to the human genome (see e.g., US Patent Publication US20180057838, the content of which is incorporated herein by reference in its entirety). We fused these arrays to human transcriptional effector domains (p65 activation domain, KRAB/HP1a silencing domains) to create humanized minimal synTFs (see e.g., FIG. 1A). To test their activity, corresponding HEK293FT reporter lines were generated harboring synTF-responsive reporter constructs, composed of 4 tandem 20-bp DBMs upstream of a minimal promoter driving transcription of a fluorescent protein (see e.g., FIG. 1B). […] Next, RNA-seq measurements were used to map the impact of the synTFs on genome-wide transcription. synTF regulation profiles were highly specific, showing minimal effects on native transcript profiles (see e.g., FIG. 1E-1G). […] A rigorous framework was used to perform this analysis, including assessing profiles against 3 independent biological references. […]
row,Molecule,activation of cognate reporter
1,"ZF1: 6-unit zinc finger array, SEQ ID NO: 1 (protein) SRPGERPFQCRICMRNFSEEANLRRHTRTHTGEKPFQCRICMRNFSDHSSLKRHLRTHTGSQKPFQCRICMRNFSQSANLLRHTRTHTGEKPFQCRICMRNFSDPSSLKRHLRTHTGSQKPFQCRICMRNFSQQTNLTRHTRTHTGEKPFQCRICMRNFSDATQLVRHLRTHLRGS",exceptionally high in vivo activity
2,"ZF10: 6-unit zinc finger array, SEQ ID NO: 3 (protein) SRPGERPFQCRICMRNFSRRHGLDRHTRTHTGEKPFQCRICMRNFSDHSSLKRHLRTHTGSQKPFQCRICMRNFSVRHNLTRHLRTHTGEKPFQCRICMRNFSDHSNLSRHLKTHTGSQKPFQCRICMRNFSQRSSLVRHLRTHTGEKPFQCRICMRNFSESGHLKRHLRTHLRGS",exceptionally high in vivo activity
